The values that follow come from paper PMC12136788.

Numbering of substitutions follows the chain as printed. This is one part of the list.

B1: 165947226_165947346_5844_CDS_ENSG00000153253_ENST00000283254|human|control|control (ssRNA)
RNA: GGGAGUUCUACAGUCCGACGAUCUUUAGAGAACUCUAUAAACUGGGUCGCAUCGGGAUCAAACUUUUCCCAAACCUCAUAGAACAUCUCAAAGUCAUCCUCACUCAGGGGCUCUGCACUUUCUUCAGUAGCAACACUGAAGUUCAACAGAGGAUUGAGCAUCA
B2: 148773136_148777573_1560_3pUTR_ENSG00000071794_ENST00000310053|human|control|control (ssRNA)
RNA: GGGAGUUCUACAGUCCGACGAUCUUGGUCUCUCCUCAACAUCAGUUUUCUUUGACCCCUCCACUGCACAAGCUCCCUUUUUCAACAUUUUCUUUUUUGUUGUAGGAACAGAUGAAGUUAAUGCACAUGCAAAUGCCACAUCUUCAACAGAGGAUUGAGCAUCA
B3: chr3:148802587:148802588:-_ENSG00000071794_ENST00000310053|hu_mus|hu_hu_hu_mus_False|48_98 (ssRNA)
RNA: GGGAGUUCUACAGUCCGACGAUCUCCAACAACUUGUCCUCUCAAACUUCCAAAUAAAACCAAAUCUUGCUCUUCAUCACUCGUUAGAAAGUCAUCUGGAGGAAUAAUGUCUUGGAAUUCAAAAUGUGGCAAGAAAGUUGAGUACAACAGAGGAUUGAGCAUCA
B4: chr19:5156467:5156468:-_ENSMUSG00000024855_ENSMUST00000025786|mus_hu|FALSE|FALSE (ssRNA)
RNA: GGGAGUUCUACAGUCCGACGAUCCUUUAUUUCUGCCACAGGCACAGAGACAUCCUUCACGUUGCUGUGUAGGCCAAGCACCAGUGCGCCUUCAUUAGGAUGCUGCAUCACCUCUGCCAUGUUGAUGAGUCCCACGGCCAAGGUCAACAGAGGAUUGAGCAUCA
B5: chr2:42509997:42509998:+_ENSG00000143924_ENST00000318522|hu_mus|hu_hu_hu_mus_True|38_48 (ssRNA)
RNA: GGGAGUUCUACAGUCCGACGAUCUCGCUGAGUCCUCUCCUCAUAAUUAAACAGGACUACCACUGAGGCGAUAAAAUAAACUAUCUCCCCGGUCGGAAGAAGGUAAACAUUCGCUCUACAGUCCUUUCCUCGAUAACCGUAUACCAACAGAGGAUUGAGCAUCA
B6: chr3:10015032:10015033:+_ENSMUSG00000027533_ENSMUST00000029046|mus_mus|mus_mus_mus_hu_True|1_1 (ssRNA)
RNA: GGGAGUUCUACAGUCCGACGAUCGUUUUUACCAUCACAAGUGAUGAUACAAUCUGGCUUGGCCAUUGCGCCCAUUUUUCGCAAAGCUAUUCCCACUCCUAGCUCCUUCAUGUAUUCAUCAAAGCCUUUGCUGUCCAUCAGGCGCAACAGAGGAUUGAGCAUCA
B7: chrX:16870723:16870724:-_ENSG00000102054_ENST00000404022|hu_hu|motif|central (ssRNA)
RNA: GGGAGUUCUACAGUCCGACGAUCUUUAUGAGAUUCGAAGGUAUGGAGUUUUAAUUUUAAGUUACGCAGAUCCCAUAAAGCGGCGGUCUUAUCCGCAGAGCCGGUGGCUAGAAUAAAUUCGCUGUAGGGAUUGAAUGAGAGGCACAACAGAGGAUUGAGCAUCA
B8: 88442248_88443343_1740_CDS_ENSMUSG00000028059_ENSMUST00000029694|mouse|control|control (ssRNA)
RNA: GGGAGUUCUACAGUCCGACGAUCCAUCUCAGGCGGUCCAGAACUAAUCAGAAACAUCCCUUUCGCCUGGUUGGCUAUGUCUCUUACGAUGAGGUUCUGCAAGGACACCACUGAGGGCUUGUCCAGAGACGUGAAAAUGUAUUUCAACAGAGGAUUGAGCAUCA
B9: chr2:42509997:42509998:+_ENSG00000143924_ENST00000318522|hu_mus|hu_hu_hu_mus_True|1_48 (ssRNA)
RNA: B5 RNA with A99C, A105U, G138A, A142G
B10: 37435025_37435145_6650_3pUTR_ENSMUSG00000026915_ENSMUST00000028279|mouse|control|control (ssRNA)
RNA: GGGAGUUCUACAGUCCGACGAUCUGAAUUAAUAACUUUUGCCACUGUUAAUACACUAUCUUCCAAAGUAGGGUAUUUAUUUACAACAAGGCCAAUUCCAUCAGGAAUUCCAUCAGAAAACUUAAGAUACUUGCACUGAUCAUACAACAGAGGAUUGAGCAUCA
B11: chr7:137662931:137662932:-_ENSMUSG00000030850_ENSMUST00000033139|mus_hu|motif|central (ssRNA)
RNA: GGGAGUUCUACAGUCCGACGAUCAGCGGCUGCCCGACUCGUUCUUGCAGUAGCCGCAGCGGUAGAAGUCCUCGCGGGGGAAAUAGUCCACGACGCUGGGCGAACCCCCCGCCCAGAAAGCCAUGGCCUCGGCCCCGCGAACGCCAACAGAGGAUUGAGCAUCA
B12: chr9:51896463:51896464:+_ENSMUSG00000032050_ENSMUST00000163153|mus_mus|FALSE|FALSE (ssRNA)
RNA: GGGAGUUCUACAGUCCGACGAUCCUUUCAACACUGUAACAACUGAUGUAGCAAUGAUAAUGUACACAAUGCAAAGAGAAAAAAAUAAAUCAGUAAAACUCCGAGGGAAGCCAAGUCCUUUAGCAAUAAGGACUAUCGCUGUGACAACAGAGGAUUGAGCAUCA
B13: chr14:72190480:72190481:+_ENSG00000197555_ENST00000381232|hu_hu|motif|central (ssRNA)
RNA: GGGAGUUCUACAGUCCGACGAUCAAAUCCCACGGAGUUUAUGGUUCCUUCGGGUUUUUUCCAUCCAAUCAGGUACUUGCGGGUAGCGCCCUGGCGAGGGUAAAAACUCCUAGGACCAGAGGAGGAGGAGGAAGAGGAGGAGAACAACAGAGGAUUGAGCAUCA
B14: 38068879_38068999_2573_3pUTR_ENSG00000156735_ENST00000287322|human|control|control (ssRNA)
RNA: GGGAGUUCUACAGUCCGACGAUCUUCUACUCACUGUGGCAUUUAAUGUUUCAUCUGUAACUCUCUAUCACAAUGCCCUCUAUAGAAGCAGCAAUAGUGAAAACAUAACUACACUUUGGGGAAAAAAAAAAAAAACAGGAAAAACAACAGAGGAUUGAGCAUCA
B15: chr1:137302511:137302512:-_ENSMUSG00000041879_ENSMUST00000161189|perfect_dup|FALSE|FALSE (ssRNA)
RNA: GGGAGUUCUACAGUCCGACGAUCUUAACGGUGCUUUUGAACUUGCUGUUCUCCAGUAGGGCAUGGACAAACUCAAAAAUGCUAAAGACGAGGUUCUCAAAGCCCAGGACUUCUCCAUCCGAAUCCACAGGAUCUUCCACUUCCCAACAGAGGAUUGAGCAUCA
B16: chr7:140404665:140404666:+_ENSG00000090266_ENST00000247866|hu_hu|hu_hu_hu_mus_False|88_88 (ssRNA)
RNA: GGGAGUUCUACAGUCCGACGAUCUGCUCCUACUCGUCCAGAGAGUUUACACCUUCAGUCCUCGUCAUCAGGAGGGAUUCCCAGUUCUUCAUCUGUCCACUGUGAAGGAUCUGGAUAUGAAAAGUGACCCAGCACAGCAUCCGACAACAGAGGAUUGAGCAUCA
B17: chr1:163112212:163112213:-_ENSG00000143248_ENST00000313961|hu_hu|hu_hu_hu_mus_False|8_58 (ssRNA)
RNA: GGGAGUUCUACAGUCCGACGAUCUUUUAUUAUCAGUAAGAGUGAGUUACAUACUAGGCAAAGUAUUGGAUACAAUAUUCUAAAGAUAAACACUAUUGGUCCAGAAUUUAAAACUUUAUGAGCGAAGGCUUACAAAUGGACUUACAACAGAGGAUUGAGCAUCA
B18: chr7:135612270:135612271:-_ENSG00000105887_ENST00000393085|hu_mus|hu_hu_hu_mus_False|88_88 (ssRNA)
RNA: GGGAGUUCUACAGUCCGACGAUCGUUUUUUUCUGAGAUGUUAAAUAUUCAGUGGAGGGAAAACAAAACUUAACCUUUUAUUAAUGCGUGUUGUACCAAAAGCAGACAUUUUAGCUUCAUUUAUUCAAAAAUAUUAACAUUAAGCAACAGAGGAUUGAGCAUCA
B19: chrX:71549400:71549401:+_ENSMUSG00000019087_ENSMUST00000019231|mus_hu|mus_mus_mus_hu_False|98_108 (ssRNA)
RNA: GGGAGUUCUACAGUCCGACGAUCGCAAGGAAGAGGACAAACCUUUCCAGUCCAGUGCGCUGCAGGGUGGGAAAGCAACAACACGGACACCGUCCCACCCUCAACCCCCCCACUGGCACAGGGUCACACAAUCUGGGUCAAAGACAACAGAGGAUUGAGCAUCA
B20: chrX:12253581:12253582:-_ENSMUSG00000064127_ENSMUST00000096495|mus_hu|FALSE|FALSE (ssRNA)
RNA: GGGAGUUCUACAGUCCGACGAUCUUAAAAAAGUCCCUGACUGACUAGGAAAGACAGCACAGUGCUCCAAAAAGAAACCCUGCAGAGAUGUAUUAAUACCAAAAACUCCAUUUGACCCUGGACAGGCCCAGGAUUCGGGAUUCUCAACAGAGGAUUGAGCAUCA
B21: chr18:52893488:52893489:-_ENSG00000196628_ENST00000354452|hu_hu|hu_hu_hu_mus_True|8_38 (ssRNA)
RNA: GGGAGUUCUACAGUCCGACGAUCUAUUUAGACCAUUUCCGCGGAGUUAUGGCAUUUACUCAGUGCUGAUAGGUGGAAAAACUACUUCAACAGGGAUUUUUUUUUUUCUUAAUACAUGCCAAGAUUGGUGUGGCUGUAAAACAGCAACAGAGGAUUGAGCAUCA
B22: chr6:114281168:114281169:-_ENSG00000196591_ENST00000368632|hu_hu|hu_hu_hu_mus_True|18_18 (ssRNA)
RNA: GGGAGUUCUACAGUCCGACGAUCUUCCAUUUUUCGGUAUAAACCAUAAUUUAGCAGCAAGUUAUGAGUCAUCCGGAUUCUAUGAGGCUUCAUGGGAUGACCCUGGCCAUAAUAAUAAUUUCCAAUAUCACCAUCAUAGUAGUACAACAGAGGAUUGAGCAUCA

The target in this assay is T1, UNK ZnF1-3 (human, UniProt Q9C0B0 31-174).
T1 sequence: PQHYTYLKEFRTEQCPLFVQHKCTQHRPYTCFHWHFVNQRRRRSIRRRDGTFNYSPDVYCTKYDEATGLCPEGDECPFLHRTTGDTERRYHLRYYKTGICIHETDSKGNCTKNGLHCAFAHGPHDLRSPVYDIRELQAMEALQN
Briefly: nsRBNS (natural sequence RNA bind-n-seq); RBNS binding buffer (assumed for nsRBNS): 25 mM Tris pH 7.5, 150 mM KCl, 3 mM MgCl2, 0.01% Triton X-100, 500 ug/ml BSA, 20 U/ml SUPERase-In, 4 C; UNK is unkempt and MSI1 is Musashi-1; names of the RNAs are library labels; protein concentration not given here; high values mean tight binding.
As for B1, the binding signal was determined as 0.705 enrichment R. With B2 the figure was 0.791 enrichment R; with B3, 1.25 enrichment R; with B4, 0.837 enrichment R. Regarding B5, the binding signal was determined as 1.05 enrichment R. For the molecule B6, the binding signal amounted to 0.696 enrichment R.

In turn, B7 yielded a binding signal of 1.61 enrichment R.

As for B8, the binding signal is 1.07 enrichment R.

As to B9, the binding signal was found to be 1.04 enrichment R.

B10 came in with a binding signal of 0.714 enrichment R. The value for B11 was 0.542 enrichment R; that for B12 was 1.45 enrichment R; that for B13 was 1.92 enrichment R. With B14 the figure was 2.22 enrichment R. The value for B15 was 1.01 enrichment R; that for B16 was 1.27 enrichment R; that for B17 was 0.966 enrichment R. Regarding B18, the binding signal worked out at 2.62 enrichment R.

For B19, the binding signal came out at 1.08 enrichment R. With B20 the figure was 1.33 enrichment R.

As to B21, the binding signal came out at 1.07 enrichment R. The value for B22 was 0.871 enrichment R.
